Results as given in PubChem BioAssay AID445 (National Center for Advancing Translational Sciences (NCATS), 2006).
Among all 110,000 compounds or so, about 40 (0.04%) were called active. Inconclusive means that the source gave no clear call. Such entries were picked first, then a sample of the others. The call rests on the fitted dose curve; in most records, active means well fitted curve in the direction sought with a large enough effect in the signal ratio (not every such curve was filed as active); inconclusive means small, poorly fitted or top-dose-only effect, or a change in a side signal; inactive means flat fitted curve, though single readings scatter; the % refers to the signal ratio. Potencies beside an inconclusive call are fits to weak or partial responses and may not hold up.

experiment: IkB Signaling; conditions: ABC-DLBCL IkBa-CBG/CBR dual luciferase ratio (green luciferase fused to IkBa over red control in OCI-Ly3 lymphoma cells), 4 h; IkBa stabilization activation: at 57.1 µM (top of the series), scaled: untreated 0%, proteasome inhibitor 100% unless noted;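 on IkBa stabilization activation: 0% = basal untreated cells and 100% = reference inhibitor full response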
Outline: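 Curves were fitted separately to fusion (green), unfused (red) and ratio luminescence, then classed by r2, magnitude and activity. Cells: OCI-Ly3, 4 h compound plus doxycycline at 37C; 10 uM MG-132 defined full response.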
Potency means the concentration at half of the fitted maximal effect.

**Q.** For Clc1ccccc1-c1cc(NCc2ccccc2)ncn1, which IkBa stabilization activation is on record?
**A.** inactive: 2.54% [at 11.4 µM, scaled: untreated 0%, proteasome inhibitor 100%]

**Q.** With Cc1cc(C)c(S(=O)(=O)Nc2cc(-c3cn4ccccc4n3)ccc2C)cc1C as the compound, how does the IkBa stabilization activation read?
**A.** inconclusive: 2.9% [signal inhibitor]

**Q.** For Cc1ccc(C(=O)c2sc(Nc3ccccc3F)c(S(=O)(=O)c3ccccc3)c2N)c(C)c1, which “IkBa stabilization activation” value is on record?
**A.** inactive: -0.73%

**Q.** Which IkBa stabilization activation does the source give for CCNC(=O)[C@@H]1O[C@@H](n2cnc3c(N)nc(NCCc4ccc(CCC(=O)O)cc4)nc32)[C@H](O)[C@@H]1O here?
**A.** inconclusive: 6.31% [signal activator]

**Q.** With O=C(CSc1nnc(Cc2cccs2)n1-c1ccccc1)NC1CCCCC1 as the compound, how does the IkBa stabilization activation read?
**A.** inconclusive: 0.852% [signal inhibitor]

**Q.** For COc1c(Cl)cc(C(=O)Nc2cccc(-c3nc4ccccc4[nH]3)c2)cc1Cl, which IkBa stabilization activation is on record?
**A.** inconclusive: 8.06% [signal inhibitor]

**Q.** For Cc1ccc(Cl)cc1N1CCN(C(=O)CN2C(=O)COc3ccc(S(=O)(=O)N4CCOCC4)cc32)CC1, which IkBa stabilization activation is on record?
**A.** inconclusive: 3.91% [signal inhibitor]

**Q.** With Cc1cc(C)c(Cn2c3ccccc3c3cnn(CC(=O)NCCc4ccccc4)c(=O)c32)c(C)c1 as the compound, how does the “IkBa stabilization activation” value read?
**A.** inactive: 1.24%

**Q.** Which IkBa stabilization activation does the source give for O=C(NCc1ccc(F)cc1)c1ccc(CSc2nc3ccncc3n2Cc2ccc(F)cc2)cc1 here?
**A.** inconclusive: 0.883% [signal inhibitor]

**Q.** For CCOC(=O)c1c(Nc2cccc(O)c2)nnc(-c2ccccc2)c1-c1ccccc1, which IkBa stabilization activation is on record?
**A.** inconclusive: -7.51% [signal inhibitor]

**Q.** For C=CCn1c(SCC(=O)Nc2sc(C)c(C)c2C(=O)OCC)nnc1-c1sc(N)nc1C, which IkBa stabilization activation is on record?
**A.** inconclusive: 0.925% [signal inhibitor]

**Q.** Which IkBa stabilization activation does the source give for CN1CCc2ccccc2Cc2[nH]c3ccccc3c2CC1 here?
**A.** inconclusive: 2.32% [signal inhibitor]

**Q.** With Cc1ccc2[nH]c(=O)c(C(c3nnnn3C3CCCC3)N(Cc3cccnc3)Cc3ccco3)cc2c1 (stereo unspecified) as the compound, how does the Potency read?
**A.** inconclusive: 25.1 µM [rising, partial curve]

**Q.** With CCOC(=O)C1=C(N)Oc2cc(O)ccc2C1c1cccnc1 (stereo unspecified) as the compound, how does the IkBa stabilization activation read?
**A.** inconclusive: 1.88% [signal inhibitor]

**Q.** With O=C(COC(=O)c1ccccn1)c1ccc(Br)cc1 as the compound, how does the “IkBa stabilization activation” value read?
**A.** inactive: 0.734%

**Q.** Which IkBa stabilization activation does the source give for COc1ccc(OC)c(NC(=O)c2ccc(-c3nc(CSc4ccccc4)c(C)o3)cc2)c1 here?
**A.** inconclusive: 0.58% [signal inhibitor]

**Q.** For O=C(c1ccccc1)[C@@H]1O[C@H]1c1ccc(-c2ccccc2)cc1, which “IkBa stabilization activation” value is on record?
**A.** inactive: 0.27%

**Q.** Which IkBa stabilization activation does the source give for COc1ccccc1CCNC(=O)c1ccc(NC(=O)N2CC(C)Sc3ccccc32)cc1 (stereo unspecified) here?
**A.** inconclusive: 1.1% [signal inhibitor]

**Q.** For CN1CCC[C@@H]1c1cccnc1.O=C(O)c1ccccc1O.O=C([OH2+])c1ccccc1O.O=C([OH2+])c1ccccc1O.O=C([OH2+])c1ccccc1O.[Cu], which IkBa stabilization activation is on record?
**A.** inactive: -0.307% [at 11.4 µM, scaled: untreated 0%, proteasome inhibitor 100%]

**Q.** For Cc1ccc(Cn2c(Cc3ccccc3)nc3ccccc32)cc1, which IkBa stabilization activation is on record?
**A.** inconclusive: -3.76% [signal inhibitor]

**Q.** For O=C(c1ccc(Cl)c(Cl)c1)N(Cc1ccco1)c1ccc(O)cc1, which IkBa stabilization activation is on record?
**A.** inconclusive: 1.43% [signal inhibitor]

**Q.** Which “IkBa stabilization activation” value does the source give for Cc1cc(N2CCN(c3ccccc3)CC2)n2c(n1)nc1ccccc12 here?
**A.** inactive: 0.541%

**Q.** For Cc1ccc(N(CC(=O)NCc2ccc(OC(C)C)cc2)S(=O)(=O)N(C)C)cc1, which “IkBa stabilization activation” value is on record?
**A.** inactive: 1.29%

**Q.** Which Potency does the source give for O=C(Nc1cccc(-c2nc3ccccc3[nH]2)c1)c1cccc(NC(=O)c2ccco2)c1 here?
**A.** inconclusive: 20 µM [rising, partial curve]

**Q.** With CCOC(=O)c1ccccc1NC(=O)CCc1c(C)nc2c(c1C)c(=O)n(C)c(=O)n2C as the compound, how does the IkBa stabilization activation read?
**A.** inconclusive: 0.406% [signal inhibitor]

**Q.** With COC(=O)c1ccc(NC(=O)c2cc3cc4ccc(OC)c(Cl)c4nc3s2)cc1 as the compound, how does the “IkBa stabilization activation” value read?
**A.** inactive: -0.335%

**Q.** For O=C(NC1CC(=O)N(c2ccc(F)cc2)C1)C(c1ccccc1)c1ccccc1 (stereo unspecified), which IkBa stabilization activation is on record?
**A.** inconclusive: 2.2% [signal inhibitor]

**Q.** With Cc1ccc(NC(=O)CSC(N)=O)cc1Cl as the compound, how does the IkBa stabilization activation read?
**A.** inconclusive: 7.26% [signal inhibitor]

**Q.** With COc1ccc(-c2noc(CSc3nnc(-c4ccncc4)n3-c3ccc(OC)cc3)n2)cc1 as the compound, how does the IkBa stabilization activation read?
**A.** inconclusive: 3.44% [signal inhibitor]

**Q.** With COc1ccccc1NC(=O)C1=C(C)Nc2nc(SCc3ccccc3)nn2C1c1cccs1 (stereo unspecified) as the compound, how does the IkBa stabilization activation read?
**A.** inconclusive: -0.992% [signal inhibitor]

**Q.** For O=C(NCCc1ccc(Cl)cc1)c1ccc2c(c1)N(Cc1ccccc1)C(=O)CS2, which IkBa stabilization activation is on record?
**A.** inconclusive: 0.912% [signal inhibitor]

**Q.** With COc1ccc(N(CC(=O)Nc2ccc(OC)c(Cl)c2)S(=O)(=O)c2c(C)noc2C)cc1 as the compound, how does the IkBa stabilization activation read?
**A.** inconclusive: 4.25% [signal inhibitor]

**Q.** With CC(=O)c1ccc(NC(=O)c2nn(C)c3c2COc2ccccc2-3)cc1 as the compound, how does the IkBa stabilization activation read?
**A.** inconclusive: 2.67% [signal inhibitor]

**Q.** Which Potency does the source give for Oc1c(C(Nc2ccccn2)c2ccccn2)ccc2cccnc12 (stereo unspecified) here?
**A.** inconclusive: 3.98 µM [signal inhibitor, full curve]

**Q.** With CC(Oc1ccccc1F)C(=O)N1CCC(c2nc3ccccc3o2)CC1 (stereo unspecified) as the compound, how does the IkBa stabilization activation read?
**A.** inconclusive: -0.077% [signal inhibitor]

**Q.** Which “IkBa stabilization activation” value does the source give for O=c1c2ccccc2nc(-c2ccc(Cl)cc2)n1CCCCOc1ccc(F)cc1 here?
**A.** inactive: 4.03%

**Q.** For CC(C)c1ccc(NC(=O)CN(C)S(=O)(=O)c2ccc3c(c2)n(C)c(=O)c(=O)n3C)cc1, which “IkBa stabilization activation” value is on record?
**A.** inactive: 1.67%

**Q.** With O=c1c(O)c(-c2cccs2)oc2ccccc12 as the compound, how does the Potency read?
**A.** inconclusive: 25.1 µM [rising, partial curve]

**Q.** For CCC1CCCCN1C(=O)CSc1nc(-c2ccc(OC)cc2)cc(C(F)(F)F)n1 (stereo unspecified), which IkBa stabilization activation is on record?
**A.** inconclusive: 14.1% [signal inhibitor]

**Q.** For O=C(Nc1cccc(C(=O)N2CCOCC2)c1)c1ncn[nH]1, which “IkBa stabilization activation” value is on record?
**A.** inactive: -2.84%

**Q.** Which IkBa stabilization activation does the source give for CCn1cc2nc(SCC(=O)Nc3cccc(Cl)c3C)n(Cc3ccc(Cl)cc3)c(=O)c2n1 here?
**A.** inconclusive: 6.09% [signal inhibitor]

**Q.** For O=C(C1CC1)N1CCc2cc(Br)cc(S(=O)(=O)Nc3ccc(C(F)(F)F)cc3)c21, which IkBa stabilization activation is on record?
**A.** inconclusive: -3.68% [signal inhibitor]

**Q.** For COc1ccc(NC(=O)C(=O)NCCc2csc3nc(-c4ccccc4C)nn23)cc1, which IkBa stabilization activation is on record?
**A.** inconclusive: 2.1% [signal inhibitor]

**Q.** With CCOc1ccc(-n2nc3ccc(NC(=O)COc4ccccc4C)cc3n2)cc1 as the compound, how does the IkBa stabilization activation read?
**A.** inconclusive: -4.42% [signal inhibitor]

**Q.** With COc1ccc(S(=O)(=O)N(CCc2ccccc2)CC(=O)NCc2ccc(C)cc2)cc1 as the compound, how does the IkBa stabilization activation read?
**A.** inconclusive: 8.93% [signal inhibitor]

**Q.** For C=CCn1c(CCC(=O)O)ccc1-c1ccc(OC)cc1, which IkBa stabilization activation is on record?
**A.** inconclusive: 4.71% [signal inhibitor]

**Q.** For COc1ccc(COn2c(=O)c(C)[n+]([O-])c3ccccc32)cc1OC, which “IkBa stabilization activation” value is on record?
**A.** inactive: -1.56%

**Q.** With COC(=O)c1ccccc1NC(=O)CSc1c2c(nc3ccc(Cl)cc13)CCCC2 as the compound, how does the IkBa stabilization activation read?
**A.** inconclusive: 9.2% [signal inhibitor]

**Q.** Which IkBa stabilization activation does the source give for Cc1cc(C)c(S(=O)(=O)Nc2ccc(-c3ccc(N4CCCCC4)nn3)cc2)cc1C here?
**A.** inconclusive: 2.09% [signal inhibitor]

**Q.** For CCc1ccc(S(=O)(=O)Nc2ccc3oc(C)c(C(=O)OCCOC)c3c2)cc1, which IkBa stabilization activation is on record?
**A.** inconclusive: 3.72% [signal inhibitor]

**Q.** Which IkBa stabilization activation does the source give for Cc1cccc(NC(=O)c2cc3c(C)nn(-c4ccccc4)c3s2)c1 here?
**A.** inconclusive: 13.1% [signal inhibitor]

**Q.** With O=C(NCc1ccc2c(c1)CCN2C(=O)c1ccncc1)c1cccc(F)c1 as the compound, how does the IkBa stabilization activation read?
**A.** inconclusive: 0.374% [signal inhibitor]

**Q.** Which “IkBa stabilization activation” value does the source give for Cc1cc2oc3c(c(=O)c2cc1C)C(c1cccc(Br)c1)N(Cc1ccco1)C3=O (stereo unspecified) here?
**A.** inactive: 7.29%

**Q.** With O=C1CN(c2nc3ccccc3n3cnnc23)CC(=O)N1CCc1ccccc1 as the compound, how does the IkBa stabilization activation read?
**A.** inconclusive: 14.2% [signal inhibitor]

**Q.** Which IkBa stabilization activation does the source give for CCOC(=O)c1[nH]c(C)c(C(=O)NCc2ccccc2Cl)c1C here?
**A.** inconclusive: 1.07% [signal inhibitor]

**Q.** Which IkBa stabilization activation does the source give for Nc1nc2ccccc2n1C(=O)CCc1ccccc1 here?
**A.** inconclusive: 11.5% [signal inhibitor]

**Q.** With COc1ccc(NC(=O)c2ccc(-c3nc(CSc4ccccc4)c(C)o3)cc2)c(OC)c1 as the compound, how does the IkBa stabilization activation read?
**A.** inconclusive: 0.111% [signal inhibitor]

**Q.** With CCCCN(c1ccccc1)S(=O)(=O)c1cc2c3c(c1)C(C)C(=O)N3CCC2 (stereo unspecified) as the compound, how does the IkBa stabilization activation read?
**A.** inconclusive: 1.5% [signal inhibitor]

**Q.** Which IkBa stabilization activation does the source give for CCN1C(=O)c2ccccc2S(=O)c2ccc(C(=O)N3CCN(c4cccc(Cl)c4)CC3)cc21 (stereo unspecified) here?
**A.** inconclusive: 7.03% [signal inhibitor]

**Q.** Which IkBa stabilization activation does the source give for COCCn1c(=S)[nH]c2cc(C(=O)N3CCc4ccccc43)ccc2c1=O here?
**A.** inconclusive: 6.28% [signal inhibitor]

**Q.** For COC(=O)c1cc(NC(=O)CCc2c(C)nc3nc(C)nn3c2C)cc(C(=O)OC)c1, which IkBa stabilization activation is on record?
**A.** inconclusive: 3.21% [signal inhibitor]

**Q.** For CCOC(=O)c1ccc(NC(=O)c2cc3ccccc3o2)cc1, which Potency is on record?
**A.** inconclusive: 1 µM [signal inhibitor, full curve]

**Q.** Which IkBa stabilization activation does the source give for O=C(Cc1ccc(F)cc1)NCCc1csc2nc(-c3ccc(Cl)cc3)nn12 here?
**A.** inconclusive: 1.05% [signal inhibitor]

**Q.** For CCCCn1c(SCc2ccccc2C#N)nc2c(sc3ccccc32)c1=O, which “IkBa stabilization activation” value is on record?
**A.** inactive: -0.469%

**Q.** With Cc1cccc(CC(=O)Nc2cccc(-c3cn4cccnc4n3)c2)c1 as the compound, how does the IkBa stabilization activation read?
**A.** inconclusive: -0.324% [signal inhibitor]

**Q.** Which Potency does the source give for COc1ccc(C(=O)c2no[n+]([O-])c2C(=O)c2ccc(OC)cc2)cc1 here?
**A.** inconclusive: 5.01 µM [signal inhibitor, partial curve]
